Data as given in article PMC3873459 (PLoS Pathogens, 2013).

Experiments:
[1] = biological target: T1, pfiT, tag-less (GST removed with PreScission protease) (Pseudomonas fluorescens); assay: AUC; details: both partners purified
T1 construct: also called recombinant pfiT; native pfiT; not shown: GST, N-terminal, cleaved

GST-pfiT fusion protein = GST-pfiT fusion protein (Pseudomonas fluorescens); assay: pull-down; details: both partners purified

B1: recombinant HLA-DR1 protein bound to a hemagglutinin (HA) peptide (peptide-MHC)
chain 1: not shown
chain 2: TRPRFLWQLKFECHFFNGTERVRLLERCIYNQEESVRFDSDVGEYRAVTELGRPDAEYWNSQKDLLEQRRAAVDTYCRHNYGVGESFTVQRRVEPKVTVYPSKTQPLQHHNLLVCSVSGFYPGSIEVRWFRNGQEEKAGVVSTGLIQNGDWTFQTLVMLETVPRSGEVYTCQVEHPSVTSPLTVEWRA
chain 3: PKYVKQNTLKLAT
[1]
  Kd: 17 µM
GST-pfiT fusion protein
  Kd: ~13.5 µM
